This is an account of results in the supplement of paper PMC3334620.

Whole data set: some 33,000 sequences, median “E-score (-0.5 to 0.5)” near -0.032, cut for the highest 2% near 0.36. This is one part of the list.

The target in the assay is T1, Sko1 (UniProt Q02100).
T1 sequence: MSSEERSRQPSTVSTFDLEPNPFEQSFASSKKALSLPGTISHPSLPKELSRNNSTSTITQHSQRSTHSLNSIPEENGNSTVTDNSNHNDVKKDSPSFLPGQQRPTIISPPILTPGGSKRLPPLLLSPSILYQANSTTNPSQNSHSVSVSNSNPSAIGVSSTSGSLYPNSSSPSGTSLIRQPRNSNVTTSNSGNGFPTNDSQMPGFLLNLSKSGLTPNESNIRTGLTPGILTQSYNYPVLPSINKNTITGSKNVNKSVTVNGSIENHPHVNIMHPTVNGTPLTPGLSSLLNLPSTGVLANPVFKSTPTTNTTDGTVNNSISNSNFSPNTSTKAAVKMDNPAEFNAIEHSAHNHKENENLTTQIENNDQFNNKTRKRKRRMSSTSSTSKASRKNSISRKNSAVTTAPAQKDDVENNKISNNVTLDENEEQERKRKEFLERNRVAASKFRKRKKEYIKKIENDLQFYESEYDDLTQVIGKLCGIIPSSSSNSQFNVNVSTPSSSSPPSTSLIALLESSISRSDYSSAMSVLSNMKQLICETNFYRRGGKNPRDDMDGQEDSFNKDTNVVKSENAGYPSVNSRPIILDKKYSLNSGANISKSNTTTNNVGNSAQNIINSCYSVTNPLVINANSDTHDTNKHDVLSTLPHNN
Kind of assay: PBM E-score (8-mer binding enrichment) (E-score (-0.5 to 0.5)); higher = stronger / more preferred TF binding; most listed sequences are background and not binding sites. Particulars: protein concentration: 200 nM; construct: GST-full length. The method, boiled down:
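GST-tagged yeast TFs (full-length or DNA-binding domain) were made by PURExpress in vitro transcription/translation and applied at about 100-200 nM to universal all-10-mer Agilent arrays. The arrays were made double-stranded by primer extension, on fresh or once-stripped slides. Bound protein was detected with fluorescent anti-GST, and scans were normalised with masliner. Each ungapped eight-base word, pooled with its reverse complement, received an E-score (modified Wilcoxon-Mann-Whitney statistic) from the Universal PBM Analysis Suite.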
Regarding ATAAGGGA, the “PBM E-score” value was determined as 0.136. In the case of ATCGGAGC, the “PBM E-score” value is -0.332.

Take CCCGATGC: the “PBM E-score” value is -0.195. To GCCCTGGA belongs -0.37. For the sequence ACACAAAC, the “PBM E-score” value was 0.144. To ACACCAGT belongs -0.153.

Consider AGAACCCA, for which the “PBM E-score” value is -0.151. TATTTGGA: the “PBM E-score” value amounted to 0.151. As for GGCTATGA, the figure is 0.0326; as for CATAGGAA, -0.0546. As for GAGGACCA, the figure is -0.0484; as for AGTCCTCC, -0.279; as for CCACGAGA, -0.206. As for CCCAGACA, the figure is -0.194. For GCACTGAC, the “PBM E-score” value is 0.0051. In the case of CGCGCAAC, the “PBM E-score” value was -0.0161. As for ATGGACCA, the figure is 0.0217; as for ATCCGTGC, 0.00159; as for GTGTGTTA, 0.236. Take AATCTAAT: the “PBM E-score” value turned out to be 0.115. As for CGGCGGAA, the figure is -0.197. As for CTAGAGTA, the figure is 0.0983; as for AATTCGTC, 0.331; as for ATCAATAG, 0.18.

Take AACCCTTC: the “PBM E-score” value was -0.00059.

In the case of CTCCCTCA, the “PBM E-score” value is -0.248. To CCACGTTA belongs 0.289; to ATAGGACA, 0.00759; to AAATGGGG, -0.311. As for ACTATCCA, the figure is -0.112; as for CCTACGAC, 0.0224. To CGCTGAGC belongs -0.0872. As for TCGTAAAA, the “PBM E-score” value came out at 0.263. On to CCAACCAA, for which the “PBM E-score” value was -0.0674.

For ACACGGCC, the “PBM E-score” value was -0.305. To CAGCCCTC belongs -0.334; to AGGCGGTG, -0.249; to ACTAGCCG, -0.145. To CCTCTGCA belongs -0.229. CTATGGCA: the “PBM E-score” value was -0.0917. To TCATGCCA belongs 0.147. To CTCTCCAA belongs -0.0315; to CCGTTGAG, -0.148; to ATGGCACA, -0.118. As to TCTTTTAA, the “PBM E-score” value came to 0.258. To CCGCGGGA belongs -0.201. As for ACCGTAAG, the figure is 0.123; as for ACTAACTA, -0.0162. To CCGGAGGA belongs -0.38; to ATGGGCTA, 0.0698. For the sequence AAGTCTCG, the “PBM E-score” value is -0.16.

For the sequence CAAAAGTA, the “PBM E-score” value stood at 0.236. As for GGTTTTTA, the figure is 0.0263; as for AGTTGGGC, -0.117. For GACCGAAA, the “PBM E-score” value is -0.028.

For the sequence ATAGCTAC, the “PBM E-score” value turned out to be 0.113. To ACAATAAA belongs 0.0772; to CCCGTTAA, -0.242; to GCTCGAGA, 0.0461. As for ACGACGCT, the figure is -0.112. Consider AACATTGG, for which the “PBM E-score” value is -0.187. As for AGGTGTTA, the figure is 0.109; as for AGACATCA, 0.138; as for CAGGGTTA, -0.146. As for ACTGTCAC, the figure is 0.00427; as for CGACGTCC, 0.169; as for GTTGTACA, 0.24. Consider GGCCATGA, for which the “PBM E-score” value is 0.004. To GCTTATGA belongs 0.0958; to GCCGTTGA, -0.137. For CGGGGTCC, the “PBM E-score” value was -0.232. To GCTCGATA belongs -0.192; to AGATCTCA, 0.0106; to GAGAACGA, 0.0376. Consider AAGGGTCG, for which the “PBM E-score” value is -0.0484. As for CATCGACG, the figure is 0.0461; as for AGGCATTA, 0.0324. To GGCTGTAA belongs -0.169. As for GTAGTGAC, the figure is 0.321; as for CGCATCCA, -0.0549; as for TCTCTGCA, -0.124.

Regarding AAGTTGTA, the “PBM E-score” value was 0.157.

As for CCACATCG, the “PBM E-score” value was -0.108. To CGGGGATA belongs -0.253. To ACGCCACC belongs 0.0629; to ATAATTTG, 0.224; to AAACAACA, 0.14. As for CGATTATC, the figure is -0.0402; as for TCTGAAGA, -0.217. As for CCTCGACA, the “PBM E-score” value is -0.152. To CTGTCAGA belongs -0.211.

CTACAGTA: the “PBM E-score” value is -0.0801. As for CTGCAATC, the figure is -0.0429; as for TAAGATGA, 0.241; as for ATCCGTAG, -0.265. As for GACAATAC, the figure is 0.222. As for ATGGAGAA, the figure is 0.0187.

Consider AGTCCGAC, for which the “PBM E-score” value is -0.103. As for AGAACGGA, the figure is -0.117. To GGAAATAC belongs 0.148; to AGCGTTAC, 0.0252; to CCCCAGAC, -0.206. Take ACGCAACG: the “PBM E-score” value was determined as 0.377. As for ATATAGAC, the figure is 0.141; as for CACCGTAA, 0.0886. As for ACTCAAAA, the figure is 0.0983. As for CACCTCGA, the figure is -0.0198. Turning to AGATGGAT, the “PBM E-score” value is -0.191. To AGTCGTTC belongs 0.0772; to ATTAGAGG, -0.0103.
